Results published in publication PMC4336329 (PLoS ONE, 2015).
Screen size: about 310,000 compounds; about 2,200 (0.71%) showed an effect of 50% or more. The effect is printed as a negative number. This is one part of the list. Where a SMILES comes first, the peptide text is derived from it. The star is where a group is joined. Boc = CC(C)(C)OC(=O)*

The compounds below were run against human ether-à-go-go-related gene (hERG) potassium channel (human, UniProt Q12809) (assay: primary screen, population patch clamp on CHO cells stably expressing hERG).
Chain of human ether-à-go-go-related gene (hERG) potassium channel (Q12809 whole entry, looked up): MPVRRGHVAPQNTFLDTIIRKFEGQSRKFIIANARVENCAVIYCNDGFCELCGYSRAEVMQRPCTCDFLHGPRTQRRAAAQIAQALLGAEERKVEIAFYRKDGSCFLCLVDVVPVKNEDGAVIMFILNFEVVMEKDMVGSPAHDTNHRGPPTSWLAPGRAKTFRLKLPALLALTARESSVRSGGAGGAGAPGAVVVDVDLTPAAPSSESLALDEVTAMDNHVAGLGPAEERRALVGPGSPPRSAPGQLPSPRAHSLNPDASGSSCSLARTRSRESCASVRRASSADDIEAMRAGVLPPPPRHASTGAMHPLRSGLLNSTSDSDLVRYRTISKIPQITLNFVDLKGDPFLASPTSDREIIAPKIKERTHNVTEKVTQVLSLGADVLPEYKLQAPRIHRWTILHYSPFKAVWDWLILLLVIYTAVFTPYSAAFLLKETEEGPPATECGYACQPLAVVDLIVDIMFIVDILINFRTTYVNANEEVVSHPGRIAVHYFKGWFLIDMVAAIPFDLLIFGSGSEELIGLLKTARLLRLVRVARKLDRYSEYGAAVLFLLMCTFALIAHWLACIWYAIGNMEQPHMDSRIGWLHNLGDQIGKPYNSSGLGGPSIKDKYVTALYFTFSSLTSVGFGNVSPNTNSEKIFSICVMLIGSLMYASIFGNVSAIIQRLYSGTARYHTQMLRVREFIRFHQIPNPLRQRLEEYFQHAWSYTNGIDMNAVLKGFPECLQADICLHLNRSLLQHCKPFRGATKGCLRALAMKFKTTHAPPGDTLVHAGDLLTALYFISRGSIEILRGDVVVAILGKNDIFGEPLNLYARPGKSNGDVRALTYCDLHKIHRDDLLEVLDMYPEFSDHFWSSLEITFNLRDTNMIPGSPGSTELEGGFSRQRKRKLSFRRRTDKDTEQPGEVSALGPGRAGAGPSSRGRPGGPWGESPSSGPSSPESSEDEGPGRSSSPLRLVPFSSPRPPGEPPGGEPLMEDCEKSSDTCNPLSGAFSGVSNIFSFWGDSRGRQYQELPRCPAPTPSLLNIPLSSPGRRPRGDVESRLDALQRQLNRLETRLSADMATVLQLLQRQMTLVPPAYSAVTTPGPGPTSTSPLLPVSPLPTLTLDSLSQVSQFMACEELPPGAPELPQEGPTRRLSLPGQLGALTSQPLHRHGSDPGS

Row | SMILES | hERG current change (%, negative = inhibition) at 1uM [%]
1 | CCc1nc(C)cn1S(=O)(=O)c1cc(C)c(OC)cc1C | 4.46
2 | CC(NCC#Cc1ccccc1)C(O)c1ccccc1.Cl (stereo not shown) | 11.3
3 | CCCn1c(=O)c(/C(N)=N/O)nn(-c2cccc(C(F)(F)F)c2)c1=O | 6.69
4 | CC(C)COc1ccc(-c2nnc(-c3ccco3)o2)cc1 | 6.55
5 | CC(C)OC1CCCC(O)C1CC(=O)O (stereo not shown) | 11
6 | O=C(NNc1cccc(Cl)n1)C1CC1 | 5.83
7 | Nc1c(-c2ccccc2)cnn1-c1cccc(Cl)c1 | 8.5
8 | COc1ccc(C)cc1S(=O)(=O)N(CC(=O)N1CCCC1)c1ccccc1 | 4.54
9 | S=C(Nc1ccc2c(c1)OCO2)N1CCCC1 | 9.91
10 | CCOC(=O)c1[nH]c(C)c(C(=O)OCC(=O)Nc2sc3c(c2C#N)CCCCC3)c1C | 5.06
11 | COCCNC(=O)c1ccccc1NC(=O)Cc1ccccc1[N+](=O)[O-] | 12.1
12 | O=C(CSc1nc(-c2cccs2)cc(C(F)(F)F)n1)Nc1cc(OCC(F)(F)C(F)F)cc([N+](=O)[O-])c1 | 17.8
13 | CCNC(=S)SCCOc1ccc(C)cc1 | 11.6
14 | Cc1cccc(/C(N)=N/OC(=O)N2CCOCC2)c1 | -1.56
15 | CN(C1=C(N2CCOCC2)C(=O)c2ccccc2C1=O)c1ccccc1 | 4.9
16 | Cc1ccc(-c2sc(C)nc2CC(=O)O)cc1 | 7.75
17 | Cc1cnc(N)c2c(=O)oc3ccccc3c12 | 16.8
18 | CSc1nc2ccccc2n1CC(=O)Nc1cc(C(F)(F)F)ccc1N1CCOCC1 | 9.52
19 | COc1ccccc1-n1cnc2cc(C(=O)N3CCOCC3)ccc21 | 8.75
20 | Nc1ccc(-c2n[nH]c(=O)c3ccccc23)cc1N | 2.14
21 | COc1cccc(/C=C2\SC(=S)NC2=O)c1OS(=O)(=O)c1ccc(NC(C)=O)cc1 | 14.5
22 | COc1ccc(C(=O)Nc2ccc3c(c2)nc(CN2CCCC2)n3C)cc1 | -1.45

Row | SMILES | hERG current change (%, negative = inhibition) at 1uM [%]
23 | CCN(CC)S(=O)(=O)c1cccc(C(=O)OCc2cc(=O)n3nc(C)sc3n2)c1 | -2.8
24 | COc1ccc(NC(=O)COC(=O)c2ccc(OCc3ccccc3Cl)c(OC)c2)c(OC)c1 | 7.47
25 | Cn1c(N)c(S(=O)(=O)N2CCN(c3ccccc3)CC2)c(=O)n(C)c1=O | -13.6
26 | Cc1cc(C)nc(N(C#N)CN2C(=O)c3ccccc3C2=O)n1 | -4.19
27 | COC(=O)C(CC(C)C)NC(=O)C(Cc1ccccc1)NC(=O)C1CCCN1C(=O)OC(C)(C)C (stereo not drawn) (Boc-Pro-Phe-Leu-OMe; configuration not given here) | 34.9
28 | c1ccc(-c2csc(N3CCN(c4ccccn4)CC3)n2)cc1 | 5.73
29 | Cc1nnc(NC(=O)C2CC(=O)N(C(C)c3ccccc3)C2)s1 (stereo not shown) | 9.34
30 | COC(=O)c1ccc(NC(=O)C2CCCN2S(=O)(=O)c2ccc(C)cc2)cc1 (stereo not shown) | 6.25
31 | CCCN1CCN(C(=O)CCc2nnc3ccc(N4CCN(c5cccc(OC)c5)CC4)nn23)CC1 | -4.64
32 | COc1ccc2c(c1)C=C(CN1CCC(CO)(CCc3ccccc3)CC1)CO2 | -27.2
33 | OC(COCc1ccccc1)CN1CCN(c2ccccc2)CC1 (stereo not shown) | -6.24
34 | Cc1cc(C)c(C#N)c(SCc2ccccc2[N+](=O)[O-])n1 | 17.8
35 | CCCCC(CC)CNC(=O)C(Cc1ccccc1)NS(=O)(=O)c1ccc2c(c1)CCC(=O)N2 (stereo not shown) | 9.1
36 | CCCNS(=O)(=O)c1cc(CN2C(=O)c3cccnc3C2=O)ccc1OC | 15.9
37 | O=C(Nc1nc(-c2ccc(S(=O)(=O)N3CCCC3)cc2)cs1)C1COc2ccccc2O1 (stereo not shown) | 12.3
38 | Br.CCC(=O)Nc1nc(C)c(-c2csc(Nc3cccc(O)c3)n2)s1 | -4.59
39 | O=C(CSC(=S)N1CCCCC1)c1ccccc1 | 15.4
40 | COc1cc(NC(=O)c2cc(-c3ccc(C)cc3)on2)cc(OC)c1OC | 17.1
41 | C/C(=N/NC(=O)CCC(=O)Nc1cccc(Cl)c1)c1ccc(C)cc1 | 13
42 | O=C(CSc1cccc[n+]1[O-])Nc1ccccc1Oc1ccccc1 | 14.9
43 | CC1(C)COC(Nc2cccc(Cl)c2)=N1 | 13.4
44 | O=C(CSc1ccc(/C=N/NC(=O)c2cccc(F)c2)o1)Nc1ccccc1 | 12.8

Row | SMILES | hERG current change (%, negative = inhibition) at 1uM [%]
45 | CCOCCCNC(=O)c1ccc2nc(-c3ccc(OC)c(OC)c3)c(-c3ccc(OC)c(OC)c3)nc2c1 | 15.6
46 | O=C(Nc1cccnc1)c1ccc(Br)s1 | 7.81
47 | CSc1ccccc1OCc1cc(C(=O)N2CCc3sccc3C2)no1 | 14.4
48 | Cc1cc(C)cc(N2C(=O)CC(c3ccccc3)CC2=O)c1 | 10.3
49 | CNc1cc([N+](=O)[O-])ccc1OCc1ccccc1 | 7.45
50 | Cn1c(CC(=O)NNC(=O)c2ccc(F)cc2F)nc2ccccc21 | 9.01
51 | CCCOc1ccc(C(=O)NC(=S)Nc2nc(C)c(C(=O)N(C)C)s2)cc1 | 2.2
52 | COc1ccccc1C(=O)Nc1ccnn1C1CCN(Cc2csc(C(C)=O)c2)CC1 | -50.9
53 | Cc1ccc(NC(=S)NC2CC3CCC(C2)N3Cc2ccco2)cc1C (stereo not shown) | -7.37
54 | C/C(=C\C(=O)Nc1nccs1)c1ccccc1 | 6.44
55 | COc1cccc(OCC(=O)O/N=C(\N)c2ccncc2)c1 | 11.6
56 | CC(SCc1ccccc1)C(=O)Nc1ccc2c(c1)OCO2 (stereo not shown) | 3.57
57 | Cc1cc2cc(CN(CCCN3CCOCC3)C(=O)NC3CCCCC3)c(=O)[nH]c2cc1C | -6.62
58 | COC(=O)CCC(=O)N1CCCC(N2CCN(c3ccc(OC)cc3)CC2)C1 (stereo not shown) | 10.5
59 | CCOCCCn1cnc2c(c1=O)c1nc3ccccc3nc1n2-c1ccccc1 | -12.9
60 | COc1ccc(C(=O)CC(=O)C(=O)Nc2cccc(F)c2)cc1 | 3.92
61 | N#C/C(=C\c1ccncc1)c1nc2ccccc2c(=O)[nH]1 | 14.2
62 | Cc1ccccc1OCCCC(=O)Nc1ccc(Br)cc1 | 8.34
63 | Cc1ccccc1-n1ncc2c1CC(C)(C)CC2NC(=O)CN1CCCC1=O (stereo not shown) | 16.4
64 | CCOC(=O)Cc1csc2nc(-c3ccccc3)nn12 | 14.1
65 | Clc1ccc(/C(Cc2nc3ccccc3[nH]2)=N\Nc2ccccc2)cc1 | 10.5
66 | c1ccc(-c2cccc(-c3ccccn3)n2)nc1 | 2.37

Row | SMILES | hERG current change (%, negative = inhibition) at 1uM [%]
67 | Cc1nnc(NC(=O)CSc2nnc(-c3ccoc3C)n2CC(C)C)s1 | 10.4
68 | CC(C)C1N(C(=O)N2CCOCC2)CCN1S(=O)(=O)c1ccccc1 (stereo not shown) | 18.7
69 | O=C(c1cnn2c(C(F)(F)F)cc(-c3ccc4c(c3)OCO4)nc12)N1CCCCC1 | 8.69
70 | O=[N+]([O-])C(=C1NCCN1)C(Cl)=C(Cl)Cl | 11.6
71 | CCNc1nc(OCCNC(C)=O)nc(N(C)C)n1 | 20.8
72 | CCCCOc1ccc(C(O)C(CN2CCOCC2)c2ccccc2)cc1.Cl (stereo not shown) | 4.27
73 | O=C(NCC(c1ccco1)N1CCc2ccccc2C1)C(=O)Nc1ccccc1 (stereo not shown) | 12.3
74 | COc1cc(OC)c(NC(=O)Cc2ccc(OC)c(S(=O)(=O)N3CCOCC3)c2)cc1Cl | 5.73
75 | COC(=O)c1c([N+](=O)[O-])c(OC)c(OC)c(OC)c1[N+](=O)[O-] | 0.055
76 | NS(=O)(=O)c1cccc(NC(=O)CN2CCC(Cc3ccccc3)CC2)c1 | 12.6
77 | O=C(c1ccc(CN2CCc3ccccc3C2)cc1)N1CCN(c2ccccc2)CC1 | 8.46
78 | COc1cc(/C=N\Nc2nncn2N)ccc1OC(C)=O.Cl | 15.3
79 | CCCCNC(=O)c1ccc(NS(=O)(=O)c2ccc3[nH]c(=O)[nH]c3c2)cc1 | 4.85
80 | S=c1[nH]nc(-c2ccc3ccccc3n2)n1-c1ccc2ncccc2c1 | 15.4
81 | COCCN(C(=O)c1cccc(OC)c1)c1nnc(-c2ccncc2)s1 | 1.99
82 | C[C@]12C=CC(=O)C=C1CC[C@@H]1C2=CC[C@]2(C)[C@@H](C(=O)CN3CCN(c4cc(N5CCCC5)nc(N5CCCC5)n4)CC3)CC[C@@H]12.O=C(O)/C=C\C(=O)O | 12.4
83 | CCCCCCO | 21.9
84 | CCOC(=O)c1c(NC(=O)CSc2c[nH]c3ccccc23)sc2c1CCCC2 | 16.6
85 | CCN(CC)S(=O)(=O)c1ccc(N2CCOCC2)c(NC(=O)c2cc([N+](=O)[O-])ccc2Cl)c1 | 4.44
86 | O=S(=O)(NC1CCCC1)c1ccc(Br)s1 | 11.5
87 | S=c1[nH]nc(-c2ccccn2)n1/N=C/c1ccccc1 | 8.65
88 | Cc1cc(C(=O)CS(=O)(=O)c2ccc(Cl)cc2)cc(C)c1O | 21.3
